Measured values as given in the RNAGym collection of RNA variant scans (doi:10.7554/elife.90254).
Read counts are not given, so values of variants with three or more changes are uncertain.

B1: LINE1-mini (parent)
chain: GGCAGAGCUCAACACAGCGUGGCAAAGUGGCUGUGGCUAGACUGCC

Variants of: B1
Test: self-cleavage, relative activity (ratio to wild type); higher = more cleavage; in vitro, sequencing; the parent is a self-cleaving ribozyme

Variant	self-cleavage
A6C C10G A25U C37U G40U	0
A25U A39G C42G U43C	0.01
G1U A12G C42A	0.02
G1C A4C C31U C46A	0.01
G2A C18G U34G G40C	0.08
G5C A14U A39U	0.07
C15U A16U G21C G40U	0
G2U G17C G29C G44C	0.06
G1U C3U G17U	0.08
C3G A11C G36U U38A	0.01
C3U G17U A26G G36U	0.04
A4C A11C G17U C37U	0
A12G A14C G21U	0.02
G1A G2A A39U	1.84
U9A G27U A41C	0.01
A11C A12G G30U G44C	0.04
G7U A11U A41C	0.04
C15G G17U G27A C46A	0.05
C10G G33C G40U	0.01
G2A G21A A41C G44A	0.19
A16G C31U U34G	0.01
G5U A6U U38G C42U	0.01
G7A G21C G33C G35A G40U C42U	0.14
C10A A11C U28G	0.02

Variant	self-cleavage
C10U G22U C37U C46A	0.01
G17A A26C C42U	0.19
C15U G33C A41C	0.03
G7A C10G C31A	0.24
G2C G22U A26C G35U	0.16
G7A U20G A24G G44A	0.05
A6C G19U C45U	0.39
G7C A14G A16G G17A	0
G19C A41U G44A	0.16
A12U A26G C42A	0.04
A6C C10U C46G	0.05
G21C U34A C46G	0.18
G5C C13G G19A C23U A25G U43C	0.01
A12G G22C U32C G40C	0.02
C18A A26G G40C	0.08
C8U G17U G30A C46A	0.23
A14G G17C G30A G36U G40U	0.14
G19A G30U U38A	1.27
G2U A16G C37A U43A	0
G1U G22U G33U C37A	0.06
C13A A25C G29U U43A	0.14
G1A C23A G33U	0.03
A11G A14C A24U G27U G36A	0.01
G5C C13A G27C A41C	0.1

Variant	self-cleavage
A6C G22A C23A A24G G35U	0.06
G1A C3U G33A G36U	0.28
C13U U28A U32A G40A G44A	0.02
A16U A25C G35A	0.01
A4U A11G G36U	0.01
G5U C8A G33A	0.24
G5U C13A C18G U32A A39U C45G	0.02
G21C C23A U34G	0.17
G21U U32G G40C C46U	0.05
C3G G30C C37A	0.13
G1U C18U G22A A41C C46A	0.03
A4U G5A C8A C15A G29A U43A	0.38
A11C G21C G40C C42A	0.01
A4G U34A C42G	0.33
G19U C23U U32A	0.22
G7A C8A A14U C15U C23G U34A G36U	0.08
A11C A24C G36U G44U	0.02
A6G A12C C15U U28G G30A C42A U43A C46A	0.01
G2A U9C G33U	0.06
G21C C31A G36U	0.04
G1C C3A A14G C23G C31U	0.07
G17U G27U C37A C45G C46A	0.01
G2U G7A G30U	0.02
G1C G2C A14U G33C G35A	0.01

Variant	self-cleavage
G22A C23U G36U	0.04
A11G A12C C18A U28C U34C G40C	0.01
C13G C15G G17U	0.07
C8A C10A G17C G21A	0.11
G7U U34C G44A	0.15
C3A A26U G30C G40C	0.2
A12G G33A G36U	0.14
G5A U20A G22U	0.05
G7U C37G G40C	0.09
C8A C10G G17C G21C	0.02
C8A A11C G17U	0.01
C8A C31A G35A C37A A41U U43G	0.18
A12G C13A G21C G40C	0.09
G5A C10A C13U G33U	0.05
G2C C15G A39C G44A	0.07
C8G C10A G17U G19C G36C C45U	0.02
A24C G29A G36U G40A	0.16
G2U G5A A14U G35A	0.1
C10A A14C G27U G44A	0.02
C3U U38G G40A G44A	0.02
A4C C8A G22C G36C	0.84
G2A C13A A26C	0.19
G5A U28C G30U C31U	0.04
C13U G17A G30U U34A	0.02

Variant	self-cleavage
A16C C18U C31G	0.01
A6U A41G C46A	2.77
G2A U32A C46A	0.06
G17C G22U C23A	1.37
C10U A26G G30C	0.27
A16U G17C G35U A39C	0.03
A6G G21C G22U	0.02
C10U U32A U38G	0
G1C C15U A26C G29U A39C	0.01
C3A G29A G30A G40C	0.05
G1U A25U G35U	0.07
G2U C8A A14C A16G	0.07
C13U G29A C42G	0.03
C15G G17U A39G C42A	0.02
C23G A41C G44A	0.08
C10A G22C G29C C46G	0.04
A16G C23G G30U G40U	0
G7A A12C G21C	0.02
A6C C10U C23U	0.07
A6U C23U A25G C46G	1.57
A4U G5U A6C G17C	0.04
G1C A14C C23A	0.06
G1A A25G G27A	0.06
G2C A12C C23A G35U	0.07

Variant	self-cleavage
G7C A26U A39G U43G	0
G17A C45G C46U	0.03
G2U A6G G21C	0.03
A12U G33C G36U	0.02
A24U G30U A39C C42A	0.04
A12U U32G U34C	0.09
C13A A14G C15G A25C G40U	0.03
G2U C3G C23U A25U U28C C31A	0.09
C15A G40A C42A G44C	0.03
U9C G40C C46G	0.01
C8A A11G U34C G35U C42G	0.01
C3U C37G C42A	0.45
A6C G17U U20G C23U G36C A41U	0.04
A4U G30U C42U	0.02
A11U C23U A24G A25U C42U	0.04
A4C C18A U20G	0.08
C13G A24U G29C G30C	0.1
G7C A16U G27A G40C	0.06
A4U A11C U34A	0.05
G2U C3U U20A U43A	0.02
A16C G30U C45G	0.01
A6C C31A G33U	0.03
G5A G29U C46U	0.02
G2C A6G C15U G29A C37U C42G	0.02

Variant	self-cleavage
G1C C10A A25C	0.01
G5A C23U A24U G36A C45A	0.29
U20A A25C G44U	0.05
C23A A24G C31A A39U A41C	0
G1C C3A A11G C23U A24U C31U G33C A41C	0.02
G5C G22C G40C	0
C13A C23U C42A	0.01
C3G G7U G36C	0.62
G22C C23A U28C	0.27
G1C C18A U32G C46U	0
C15A C42U C46G	0.03
C18U U20A G22A G30A C46G	0.44
A24U G35C U38C G44A	0.09
G2U U20C G29C	0.07
U9G C37A G40A C42G	0.09
A11C G17U G33C G36U C37A A39U C42A C45A	0
A6U C18G A24U A25G	0.15
C3U A14C A39G	0.02
C13U C23U C45U	0.26
G2C U20C G36A	0.13
G2A G17C G36C	0.08
G2U A16G G21U G29C	0.14
C3U G7A C23A C37A U43G	0.02
